# Some of the results follow.
# What was measured:
# Assay in all cases: glycan array binding signal (z-score within array); higher = stronger binding
# Details in all cases: glycan notation: IUPAC condensed, linker removed
# [1] = target: Neu5Ac(a2-3)Gal6S(b1-4)[Fuc(a1-3)]GlcNAc
# In short: (§1)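 Arrays were curated from the Consortium for Functional Glycomics database, 3228 in total, and kept only where the protein sequence was available. Binding is expressed as a within-array Z-score. This score was averaged across arrays of the same protein sequence at different concentrations or buffers and across linkers, and negative values can be read as non-binding.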
# Neu5Ac(a2-3)GalNAc = target: Neu5Ac(a2-3)GalNAc
# In short: as §1
# [2] = target: Neu5Ac(a2-3)GalNAc(b1-4)GlcNAc
# In short: as §1
# [3] = target: Neu5Ac(a2-3)[GalNAc(b1-4)]Gal(b1-4)Glc
# In short: as §1
# [4] = target: Neu5Ac(a2-3)[GalNAc(b1-4)]Gal(b1-4)GlcNAc
# In short: as §1
# [5] = target: Neu5Ac(a2-3)[GalNAc(b1-4)]Gal(b1-4)GlcNAc(b1-3)GalNAc
# In short: as §1
# [6] = target: Neu5Ac(a2-3)[Neu5Ac(a2-6)]GalNAc
# In short: as §1
# Neu5Ac(a2-6)Gal = target: Neu5Ac(a2-6)Gal
# In short: as §1
# [7] = target: Neu5Ac(a2-6)Gal(b1-3)GlcNAc(b1-3)[Gal(b1-4)GlcNAc(b1-6)]Gal(b1-4)Glc
# In short: as §1
# Neu5Ac(a2-6)Gal(b1-4)Glc = target: Neu5Ac(a2-6)Gal(b1-4)Glc
# In short: as §1
# [8] = target: Neu5Ac(a2-6)Gal(b1-4)GlcNAc
# In short: as §1
# [9] = target: Neu5Ac(a2-6)Gal(b1-4)GlcNAc(b1-2)Man
# In short: as §1
# [10] = target: Neu5Ac(a2-6)Gal(b1-4)GlcNAc(b1-2)Man(a1-3)Man(b1-4)GlcNAc(b1-4)GlcNAc
# In short: as §1
# [11] = target: Neu5Ac(a2-6)Gal(b1-4)GlcNAc(b1-2)Man(a1-3)[Gal(b1-4)GlcNAc(b1-2)Man(a1-6)]Man(b1-4)GlcNAc(b1-4)GlcNAc
# In short: as §1
# [12] = target: Neu5Ac(a2-6)Gal(b1-4)GlcNAc(b1-2)Man(a1-3)[GlcNAc(b1-2)Man(a1-6)]Man(b1-4)GlcNAc(b1-4)GlcNAc
# In short: as §1
# [13] = target: Neu5Ac(a2-6)Gal(b1-4)GlcNAc(b1-2)Man(a1-3)[GlcNAc(b1-4)][Neu5Ac(a2-6)Gal(b1-4)GlcNAc(b1-2)Man(a1-6)]Man(b1-4)GlcNAc(b1-4)GlcNAc
# In short: as §1
# [14] = target: Neu5Ac(a2-6)Gal(b1-4)GlcNAc(b1-2)Man(a1-3)[Man(a1-6)]Man(b1-4)GlcNAc(b1-4)GlcNAc
# In short: as §1
# [15] = target: Neu5Ac(a2-6)Gal(b1-4)GlcNAc(b1-2)Man(a1-3)[Neu5Ac(a2-3)Gal(b1-4)GlcNAc(b1-2)Man(a1-6)]Man(b1-4)GlcNAc(b1-4)GlcNAc
# In short: as §1
# [16] = target: Neu5Ac(a2-6)Gal(b1-4)GlcNAc(b1-2)Man(a1-3)[Neu5Ac(a2-6)Gal(b1-4)GlcNAc(b1-2)Man(a1-6)]Man(b1-4)GlcNAc(b1-4)GlcNAc
# In short: as §1
# [17] = target: Neu5Ac(a2-6)Gal(b1-4)GlcNAc(b1-2)Man(a1-3)[Neu5Ac(a2-6)Gal(b1-4)GlcNAc(b1-2)Man(a1-6)]Man(b1-4)GlcNAc(b1-4)[Fuc(a1-6)]GlcNAc
# In short: as §1
# [18] = target: Neu5Ac(a2-6)Gal(b1-4)GlcNAc(b1-2)Man(a1-6)Man(b1-4)GlcNAc(b1-4)GlcNAc
# In short: as §1
# [19] = target: Neu5Ac(a2-6)Gal(b1-4)GlcNAc(b1-2)Man(a1-6)[Gal(b1-4)GlcNAc(b1-2)Man(a1-3)]Man(b1-4)GlcNAc(b1-4)GlcNAc
# In short: as §1
# [20] = target: Neu5Ac(a2-6)Gal(b1-4)GlcNAc(b1-2)Man(a1-6)[GlcNAc(b1-2)Man(a1-3)]Man(b1-4)GlcNAc(b1-4)GlcNAc
# In short: as §1
# [21] = target: Neu5Ac(a2-6)Gal(b1-4)GlcNAc(b1-2)Man(a1-6)[Man(a1-3)]Man(b1-4)GlcNAc(b1-4)GlcNAc
# In short: as §1
# [22] = target: Neu5Ac(a2-6)Gal(b1-4)GlcNAc(b1-2)[Neu5Ac(a2-6)Gal(b1-4)GlcNAc(b1-4)]Man(a1-3)[GlcNAc(b1-4)][Neu5Ac(a2-6)Gal(b1-4)GlcNAc(b1-2)[Neu5Ac(a2-6)Gal(b1-4)GlcNAc(b1-6)]Man(a1-6)]Man(b1-4)GlcNAc(b1-4)GlcNAc
# In short: as §1
# [23] = target: Neu5Ac(a2-6)Gal(b1-4)GlcNAc(b1-2)[Neu5Ac(a2-6)Gal(b1-4)GlcNAc(b1-4)]Man(a1-3)[GlcNAc(b1-4)][Neu5Ac(a2-6)Gal(b1-4)GlcNAc(b1-4)Man(a1-6)]Man(b1-4)GlcNAc(b1-4)GlcNAc
# In short: as §1
# [24] = target: Neu5Ac(a2-6)Gal(b1-4)GlcNAc(b1-2)[Neu5Ac(a2-6)Gal(b1-4)GlcNAc(b1-6)]Man(a1-6)[Neu5Ac(a2-6)Gal(b1-4)GlcNAc(b1-2)Man(a1-3)][GlcNAc(b1-4)]Man(b1-4)GlcNAc(b1-4)GlcNAc
# In short: as §1
# [25] = target: Neu5Ac(a2-6)Gal(b1-4)GlcNAc(b1-3)Gal(b1-3)GlcNAc
# In short: as §1
# [26] = target: Neu5Ac(a2-6)Gal(b1-4)GlcNAc(b1-3)Gal(b1-4)GlcNAc
# In short: as §1
# [27] = target: Neu5Ac(a2-6)Gal(b1-4)GlcNAc(b1-3)Gal(b1-4)GlcNAc(b1-2)Man(a1-3)[Neu5Ac(a2-6)Gal(b1-4)GlcNAc(b1-3)Gal(b1-4)GlcNAc(b1-2)Man(a1-6)]GalNAc
# In short: as §1
# [28] = target: Neu5Ac(a2-6)Gal(b1-4)GlcNAc(b1-3)Gal(b1-4)GlcNAc(b1-3)Gal(b1-4)GlcNAc
# In short: as §1
# [29] = target: Neu5Ac(a2-6)Gal(b1-4)GlcNAc(b1-3)Gal(b1-4)GlcNAc(b1-3)Gal(b1-4)GlcNAc(b1-2)Man(a1-3)[Neu5Ac(a2-6)Gal(b1-4)GlcNAc(b1-3)Gal(b1-4)GlcNAc(b1-3)Gal(b1-4)GlcNAc(b1-2)Man(a1-6)]GalNAc
# In short: as §1
# [30] = target: Neu5Ac(a2-6)Gal(b1-4)GlcNAc(b1-3)Gal(b1-4)GlcNAc(b1-3)GalNAc
# In short: as §1
# [31] = target: Neu5Ac(a2-6)Gal(b1-4)GlcNAc(b1-3)Gal(b1-4)GlcNAc(b1-3)[Neu5Ac(a2-6)Gal(b1-4)GlcNAc(b1-3)Gal(b1-4)GlcNAc(b1-6)]GalNAc
# In short: as §1
# [32] = target: Neu5Ac(a2-6)Gal(b1-4)GlcNAc(b1-3)Gal(b1-4)GlcNAc(b1-6)[Gal(b1-3)]GalNAc
# In short: as §1
# [33] = target: Neu5Ac(a2-6)Gal(b1-4)GlcNAc(b1-3)Gal(b1-4)[Fuc(a1-3)]GlcNAc(b1-3)Gal(b1-4)[Fuc(a1-3)]GlcNAc
# In short: as §1
# [34] = target: Neu5Ac(a2-6)Gal(b1-4)GlcNAc(b1-3)GalNAc
# In short: as §1
# [35] = target: Neu5Ac(a2-6)Gal(b1-4)GlcNAc(b1-3)[Neu5Ac(a2-6)Gal(b1-4)GlcNAc(b1-6)]GalNAc
# In short: as §1
# [36] = target: Neu5Ac(a2-6)Gal(b1-4)GlcNAc(b1-6)GalNAc
# In short: as §1
# [37] = target: Neu5Ac(a2-6)Gal(b1-4)GlcNAc(b1-6)[Gal(b1-3)GlcNAc(b1-3)]Gal(b1-4)Glc
# In short: as §1
# [38] = target: Neu5Ac(a2-6)Gal(b1-4)GlcNAc(b1-6)[Gal(b1-3)]GalNAc
# In short: as §1
# [39] = target: Neu5Ac(a2-6)Gal(b1-4)GlcNAc6S
# In short: as §1
# Neu5Ac(a2-6)GalNAc = target: Neu5Ac(a2-6)GalNAc
# In short: as §1
# [40] = target: Neu5Ac(a2-6)GalNAc(b1-4)GlcNAc
# In short: as §1
# [41] = target: Neu5Ac(a2-6)GalNAc(b1-4)GlcNAc6S
# In short: as §1
binder,measurement,setting,value
"Gal 8 (Mus musculus), Q9JL15 (protein) MGGSHHHHHHGMASMLSLNNLQNIIYNPIIPYVGTITEQLKPGSLIVIRGHVPKDSERFQVDFQLGNSLKPRADVAFHFNPRFKRSSCIVCNTLTQEKWGWEEITYDMPFRKEKSFEIVFMVLKNKFQVAVNGRHVLLYAHRISPEQIDTVGIYGKVNIHSIGFRFSSASALPHTLGDLQSMETSALGLTQINRENIQKPGKLQLSLPFEARLNASMGPGRTVVIKGEVNTNARSFNVDLVAGKTRDIALHLNPRLNVKAFVRNSFLQDAWGEEERNITCFPFSSGMYFEMIIYCDVREFKVAINGVHSLEYKHRFKDLSSIDTLSVDGDIRLLDVRSW",glycan array binding signal (z-score),[1],-0.546
same,glycan array binding signal (z-score),Neu5Ac(a2-3)GalNAc,-0.537
same,glycan array binding signal (z-score),[2],-0.542
same,glycan array binding signal (z-score),[3],-0.543
same,glycan array binding signal (z-score),[4],-0.54
same,glycan array binding signal (z-score),[5],-0.502
same,glycan array binding signal (z-score),[6],-0.546
same,glycan array binding signal (z-score),Neu5Ac(a2-6)Gal,-0.511
same,glycan array binding signal (z-score),[7],-0.258
same,glycan array binding signal (z-score),Neu5Ac(a2-6)Gal(b1-4)Glc,-0.311
same,glycan array binding signal (z-score),[8],-0.544
same,glycan array binding signal (z-score),[9],-0.548
same,glycan array binding signal (z-score),[10],-0.537
same,glycan array binding signal (z-score),[11],0.227
same,glycan array binding signal (z-score),[12],-0.547
same,glycan array binding signal (z-score),[13],-0.541
same,glycan array binding signal (z-score),[14],-0.525
same,glycan array binding signal (z-score),[15],-0.54
same,glycan array binding signal (z-score),[16],-0.448
same,glycan array binding signal (z-score),[17],-0.514
same,glycan array binding signal (z-score),[18],-0.53
same,glycan array binding signal (z-score),[19],0.013
same,glycan array binding signal (z-score),[20],-0.549
same,glycan array binding signal (z-score),[21],-0.543
same,glycan array binding signal (z-score),[22],-0.602
same,glycan array binding signal (z-score),[23],-0.549
same,glycan array binding signal (z-score),[24],-0.539
same,glycan array binding signal (z-score),[25],0.159
same,glycan array binding signal (z-score),[26],-0.168
same,glycan array binding signal (z-score),[27],0.465
same,glycan array binding signal (z-score),[28],0.078
same,glycan array binding signal (z-score),[29],0.157
same,glycan array binding signal (z-score),[30],-0.1
same,glycan array binding signal (z-score),[31],-0.311
same,glycan array binding signal (z-score),[32],0.11
same,glycan array binding signal (z-score),[33],-0.516
same,glycan array binding signal (z-score),[34],-0.531
same,glycan array binding signal (z-score),[35],-0.533
same,glycan array binding signal (z-score),[36],-0.491
same,glycan array binding signal (z-score),[37],0.161
same,glycan array binding signal (z-score),[38],0.234
same,glycan array binding signal (z-score),[39],-0.549
same,glycan array binding signal (z-score),Neu5Ac(a2-6)GalNAc,-0.536
same,glycan array binding signal (z-score),[40],-0.566
same,glycan array binding signal (z-score),[41],-0.539

# — the supplement of paper PMC8728848
